Data from PubChem BioAssay AID248 (DTP/NCI, 2004).
Toxic doses and inconclusive results are not listed. For part of its entries the source gives two or more results. The other results are left out here. An entry can have further records. The records of an entry repeat one measurement across runs, samples, wells, individuals or studies.

Tested on: L1210 leukemia ip in BDF1 mice, survival T/C
Assay: NCI In Vivo Anticancer Drug Screen. Data for tumor model L1210 Leukemia (intraperitoneal) in B6D2F1 (BDF1) mice
Conditions: endpoint: mean survival time, higher = longer survival
[1] = dose: 400.0 mg/kg/injection, schedule: Q01DX009 (ip), vehicle: saline with Tween-80
[2] = dose: 400.0 mg/kg/injection, schedule: Q04DX002 (ip), vehicle: saline

O=c1[nH]nc(SCc2ccccc2)c(=S)[nH]1
T/C (dose: 400.0 mg/kg/injection, schedule: Q01DX001 (ip), vehicle: other): 97 % of control and 166 % of control

CCCCC(=O)NN
T/C (dose: 100.0 mg/kg/injection, schedule: Q01DX009 (ip), vehicle: saline with Tween-80): 90 % of control and 155 % of control

CN(C)CC(=O)c1ccc(O)c(O)c1
T/C (dose: 300.0 mg/kg/injection, schedule: Q01DX Z (ip), vehicle: saline): 113 % of control and 155 % of control

Nc1nc(=O)n(C2CC(O)C(CO)O2)cc1F (stereo unspecified)
T/C (dose: 45.0 mg/kg/injection, schedule: Q01DX Z (ip), vehicle: saline): 115 % of control and 158 % of control

CCNc1nncs1
T/C (dose: 150.75 mg/kg/injection, schedule: Q02DX010 (ip), vehicle: carboxymethylcellulose (CMC)): 105 % of control and 154 % of control

CCCC(=O)Nc1ccc(O)cc1
T/C [1]: 123 % of control and 160 % of control

C=CC(=O)OCC(C)(C)C
T/C [2]: 100 % of control and 155 % of control

CN(C)N=Nc1cc(Cl)cc(C(N)=O)c1Cl
T/C [1]: 118 % of control and 170 % of control

CC1(C#N)CC(c2ccccc2)Nc2ccccc2N1 (stereo unspecified)
T/C (dose: 400.0 mg/kg/injection, schedule: Q04DX003 (ip), vehicle: Klucel (hydroxypropylcellulose) (HPC)): 92 % of control, 96 % of control, 164 % of control

O=C(NO)c1ccc([N+](=O)[O-])cc1
T/C (dose: 400.0 mg/kg/injection, schedule: Q01DX015 (ip), vehicle: water): 119 % of control, 152 % of control, 159 % of control

Nc1c(F)c(F)c(C(=O)O)c(F)c1F
T/C [2]: 91 % of control and 156 % of control
